The other results are listed elsewhere or left out.
T1: UNK ZnF1-3 (human, UniProt Q9C0B0 31-174)
T1 sequence: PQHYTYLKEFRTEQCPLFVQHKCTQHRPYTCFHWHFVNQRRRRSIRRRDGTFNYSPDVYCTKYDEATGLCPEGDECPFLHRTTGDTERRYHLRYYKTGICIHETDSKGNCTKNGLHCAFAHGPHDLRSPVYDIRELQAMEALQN

B1: chr7:65419240:65419241:+_ENSG00000196715_ENST00000360768|hu_hu|motif|central (ssRNA)
RNA: GGGAGUUCUACAGUCCGACGAUCCGGGCGUCAGUCCUGCUUGGGUUGCAGCUGCCGCUUCCAGGCCUCGUUCAAGUAAACGGGUCGUUUGUAGUUGAUAAUGAGAAGAAGGAAGUUCAGCACGUACGUGACGAUGCAGAUGAUCAACAGAGGAUUGAGCAUCA
B2: 133328640_133340391_102_CDS_ENSG00000213585_ENST00000395044|human|control|control (ssRNA)
RNA: GGGAGUUCUACAGUCCGACGAUCGCCCUUGGUGAAGACAUCCCUGGCAGAUUUGCCAAGAUCGGCAUACGUGGGUGGCACAGCCAUCUUCUCAGAGGAUGUGGCGGCGGGCUCGGAGGCGGCUACGGCGGGGGCUGCGACGCGCAACAGAGGAUUGAGCAUCA
B3: chr2:230668852:230668853:-_ENSG00000153827_ENST00000389045|hu_hu|FALSE|FALSE (ssRNA)
RNA: GGGAGUUCUACAGUCCGACGAUCUAUCCUAAGAAUUGCUCUAAGGCACUUAUGUCUGACCGCAGGUCCUGCUGAGGAACUAUACACUUCAUAAAGAACACCAAAUAAUGUCUUAAUAAAAGACUUAGCCAGUUCCGGAUCCUCCAACAGAGGAUUGAGCAUCA
B4: chr5:162869536:162869537:+_ENSG00000113328_ENST00000340828|hu_hu|FALSE|FALSE (ssRNA)
RNA: GGGAGUUCUACAGUCCGACGAUCAUAAUCCAGUUAAGGGACCAUUUCAGGAAUUGUUGGAAGGUGAGUUAUUCUGUAGUAGCUAUGCUUCAAUUGCCGUGCAGUACGCCCAGAAACAAUCCAUUUCAACUUCUGAACAUUUGGCAACAGAGGAUUGAGCAUCA
B5: chr14:76904430:76904431:+_ENSMUSG00000022010_ENSMUST00000022587|mus_mus|mus_mus_mus_hu_True|78_88 (ssRNA)
RNA: GGGAGUUCUACAGUCCGACGAUCUGCAGCCAAAAACACCCUCGUGGCGGGAGGGAGCAAGCUCCAGCAGCCUUGUAUAAGCUAGAUAAAAUCUUCUGGCUUUCCGCAGCCCAGGGAGAAACAGAAAACGGCAGCCCUAAUUUACAACAGAGGAUUGAGCAUCA
B6: chr17:32491890:32491891:-_ENSMUSG00000024050_ENSMUST00000163107|mus_mus|FALSE|FALSE (ssRNA)
RNA: GGGAGUUCUACAGUCCGACGAUCGCCUCCAAGAGGCGCCGGUUUGAGGUUUUGGCUUGCUCCUUUGGAAACGGAAAAGAAAGAUGGAAAAGGGGGAGAGGACAGAGGAGAAAUGGGAGGGGAUAGGUGGCACAAAAGGGGAUCCAACAGAGGAUUGAGCAUCA
B7: 20712990_20713110_4682_CDS_ENSMUSG00000004099_ENSMUST00000004202|mouse|control|control (ssRNA)
RNA: GGGAGUUCUACAGUCCGACGAUCAACACUCACGACCCGGUGCUGCUCCGGGUGGAGCACCCGACCCUGCUUGCCCAUGGGCUCAGGGUUGGUGACAGUGGUGCUGAAGAAGCCAUCCCACUCCAGACGCCCGUAGAGGCCAGCCAACAGAGGAUUGAGCAUCA
B8: chr7:65705844:65705845:+_ENSG00000169902_ENST00000304842|hu_mus|hu_hu_hu_mus_False|88_88 (ssRNA)
RNA: GGGAGUUCUACAGUCCGACGAUCAAACGGAUCUUUGUUACAUAAAUAAGGGGCUGGCUCCCCAUGUUUAACAAUGACCUCCAGAAGGAAGGCUUGCAUGGCAGAAUCUAGCACUUCAUCUGUGACACCCGCCUCAUCCAAGCGCAACAGAGGAUUGAGCAUCA
B9: chr1:88248876:88248877:-_ENSMUSG00000026234_ENSMUST00000027438|perfect_dup|motif|central (ssRNA)
RNA: GGGAGUUCUACAGUCCGACGAUCUUCCCUUUUAUUACAGGAAUUUAAAGCUUCUUUAGCGUCUUCGAAUGAAGCAAACUCGGUAAAUGCAUACCCUUUAGAUUUGCCAUUUUGGUUCUGGGGUACUUUGAUAAAAGUUGCUUUCAACAGAGGAUUGAGCAUCA
B10: chr10:116622694:116622695:+_ENSG00000151553_ENST00000369248|hu_mus|FALSE|FALSE (ssRNA)
RNA: GGGAGUUCUACAGUCCGACGAUCAUACAAUGAAUCUGAAACCCUAGAAAAACAGACUGAGCACAGUGUCAAACAAGCUCCGAGCCAUGCCGCGGCCGUGGCUGUGGCUGUACAGCUCAGCUGGUGACUGCCCCCCCCCCCCGACAACAGAGGAUUGAGCAUCA
B11: 16285674_16285794_385_CDS_ENSG00000170315_ENST00000535788|human|control|control (ssRNA)
RNA: GGGAGUUCUACAGUCCGACGAUCGUCGGGGGGGAUGCCUUCUUUAUCUUGGAUCUUGGCCUUCACAUUUUCGAUGGUGUCACUGGGCUCCACCUCCAGAGUGAUGGUCUUGCCGGUCAGGGUCUUCACGAAGAUCUGCAUACCCAACAGAGGAUUGAGCAUCA
B12: chr9:130210260:130210261:-_ENSG00000197958_ENST00000361436|hu_hu|FALSE|FALSE (ssRNA)
RNA: GGGAGUUCUACAGUCCGACGAUCGCCCACUGACUGGGCAGUCCCCAGGAUCUCUUUAAUGGUUCCAGAGAGUUCUCUGGCUAAGGAUCGGUGCCGCAUCUGUCGAGCAAUGUUGACAAUCUCAUCAAAAGUGAUAUUCCCACUCAACAGAGGAUUGAGCAUCA
B13: chr9:42776432:42776433:-_ENSMUSG00000059495_ENSMUST00000165665|mus_mus|motif|central (ssRNA)
RNA: GGGAGUUCUACAGUCCGACGAUCGUUCAACUCAGUAGUGAUUCAGUUUCGAAAACCUCUUUCUUCUCUCCCAAAUCCCAACGGUCAAUAGAAAAGACAACGACAAGGGAAAUCCACCCAUUUUCAAGUGCCUGCCAUUUAGUGCAACAGAGGAUUGAGCAUCA
B14: chr16:94690093:94690094:+_ENSMUSG00000040785_ENSMUST00000117648|mus_hu|mus_mus_mus_hu_True|1_18 (ssRNA)
RNA: GGGAGUUCUACAGUCCGACGAUCGGGCUGGGAUGACGGACACACAGCCUCGAUUCCAGGGGGAAAAAGUCUUAGUCGAUACUAAUUAAAAAGUGUUAAUGAUUUUUGAAAAUCAGAUGUAGAUUAAAAAAGAUGAAAGCACUUCAACAGAGGAUUGAGCAUCA
B15: chr15:50791314:50791315:+_ENSG00000138592_ENST00000307179|hu_hu|motif|central (ssRNA)
RNA: GGGAGUUCUACAGUCCGACGAUCACCAUUAUCCUGAUAAGCAUUUCAAGAGUUGUGUUGCUGAGCCUUUUAAAAGAUAACGGGUUUAUAACCUAUGUCUCCUUAUGUGGCUACAUCAGUUACUCGUGGUCCCAAUGAAGUAUACAACAGAGGAUUGAGCAUCA
B16: chr5:107067165:107067166:-_ENSMUSG00000049606_ENSMUST00000112696|mus_hu|FALSE|FALSE (ssRNA)
RNA: GGGAGUUCUACAGUCCGACGAUCAACUGAAGCAGAGGUAGGUAGUUUUUUAUUGGAAUGGGUGGGAUUCUUAGCAUGUGCUACAUCUGAUAACAAAAAUAAAACUUGGUGUUGACUUGCUUUCUGUGGUGUAGACAGCUGAAGCAACAGAGGAUUGAGCAUCA
B17: 24711598_24711718_5686_CDS_ENSMUSG00000032855_ENSMUST00000035565|mouse|control|control (ssRNA)
RNA: GGGAGUUCUACAGUCCGACGAUCGCUAUCUGGCUCACUGGUUCUGAUACUCAGACCACCCACAGGCACCUGUAUGGCCACUUCAACUGUGGCAUUGACUGAGCCCAACUGGUUCUCAGCUGUGACUCUGACCAAGUGCAGGCCCAACAGAGGAUUGAGCAUCA
B18: chr7:44244176:44244177:+_ENSG00000106636_ENST00000223369|hu_mus|hu_hu_hu_mus_False|1_38 (ssRNA)
RNA: GGGAGUUCUACAGUCCGACGAUCACUGUCGCUCCGGACGUAGACAUGGCAAAGAUACUCUUGUUCUUUGACAGAAGCUCUGCUGCCUUUCCCCGAGCGCUCCACAAUCAGUUGACUUGUAAAGGUCAUGAAUUCCUGAACGCUCAACAGAGGAUUGAGCAUCA
B19: chr16:47005550:47005551:-_ENSG00000069345_ENST00000563158|hu_hu|motif|central (ssRNA)
RNA: GGGAGUUCUACAGUCCGACGAUCUAAAGAAAAGGUAAAAAUAAAAAUAAUUGCAUUUUCAAGUAGAAGAGUGGGGAGAAGCGGCAGGAAUCCAGAAUCCAUUUAAUUUUUGUCUCCUGCAUUUGGAUUCUUAUCAGGAUGAUACAACAGAGGAUUGAGCAUCA
B20: chr7:54825262:54825263:-_ENSG00000132432_ENST00000352861|hu_hu|hu_hu_hu_mus_False|1_18 (ssRNA)
RNA: GGGAGUUCUACAGUCCGACGAUCCUGCCGGCUGGGCUCCACAAACUGCAUUACCUGAUCCAUGUUUGUUGGAUGGCGGAUUGAGAGCGUAGAGACACGUAGCUCAGGAGAGAACCGGAUGGAGGCCAACCGGAAGCGGAAUCCCAACAGAGGAUUGAGCAUCA
B21: chr11:70340070:70340071:+_ENSMUSG00000018286_ENSMUST00000018430|mus_mus|motif|central (ssRNA)
RNA: GGGAGUUCUACAGUCCGACGAUCCAGAUCUUCUCUGUACCGGUAACACAUCUCCUUAAAGAGACUGGCGGCUGUGUGGACGGGUGGAGGCUCGUUCAGUUCAAUACUGUGGAAACCAAGCUGGUAAGUGACAGCGUCUGCCACCAACAGAGGAUUGAGCAUCA
B22: chr10:1088697:1088698:-_ENSG00000067064_ENST00000381344|hu_mus|FALSE|FALSE (ssRNA)
RNA: GGGAGUUCUACAGUCCGACGAUCGUUCUCUUCCAGCUCGCCUGGGUUACUUAAUGGAUGACUACAGCAACUAUUGGUGAAACAACCUGGAAAGGUAAUUUUAGCAUCUGAUCUCUGCUGUAACAGGAGCUUAUUUUCAGUAUUCAACAGAGGAUUGAGCAUCA

Each binder was assayed against T1, UNK ZnF1-3 (assay: nsRBNS (natural sequence RNA bind-n-seq); RBNS binding buffer (assumed for nsRBNS): 25 mM Tris pH 7.5, 150 mM KCl, 3 mM MgCl2, 0.01% Triton X-100, 500 ug/ml BSA, 20 U/ml SUPERase-In, 4 C; UNK is unkempt and MSI1 is Musashi-1; names of the RNAs are library labels; protein concentration not given here; high values mean tight binding).

Binder	binding signal
B1	0.688 enrichment R
B2	1.41 enrichment R
B3	1.13 enrichment R
B4	0.657 enrichment R
B5	2.02 enrichment R
B6	2.81 enrichment R
B7	1.01 enrichment R
B8	0.784 enrichment R
B9	0.771 enrichment R
B10	1.38 enrichment R
B11	0.684 enrichment R
B12	1.16 enrichment R
B13	1.52 enrichment R
B14	1.4 enrichment R
B15	0.749 enrichment R
B16	1.54 enrichment R
B17	0.962 enrichment R
B18	0.53 enrichment R
B19	1.59 enrichment R
B20	1.07 enrichment R
B21	0.815 enrichment R
B22	0.999 enrichment R
